Source: the supplement of paper PMC4723716
± gives the uncertainty stated by the source. Whole data set: some 9,900 compounds, median “viability index relative to DMSO control” near 1, cut for the lowest 2% near 0.85. This is one part of the list.

tested on: Plasmodium falciparum NF54 stage V gametocytes; test: viability index relative to DMSO control (fraction); higher = less gametocyte killing; conditions: 2.5 µM, library set: Broad Institute DOS, incubation time: 72 h
How it was run: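 Stage V gametocytes of P. falciparum NF54 were held in serum-free screening medium at 0.75% gametocytemia and 1.25% hematocrit, 10 µl per well of a 1,536-well plate, and exposed to compound at 2.5 µM for 72 hr at 37°C under low oxygen. A 3 µl mix of 2.5 µM MitoTracker Red CMXRos with 0.13% saponin was then added for one to two hours, after which one field per well was imaged and red particles of 20–70 µm2 were counted. The viability index equals this count divided by the plate mean from wells given solvent alone.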

Point of comparison: `CO[C@H]1CN(C)C(=O)c2cc(NC(=O)C3CCOCC3)ccc2OC[C@@H](C)NC[C@H]1C`, viability index 1 ± 0.057. Against it:
- CNC[C@H]1OCCCC[C@H](C)Oc2ccc(NC(=O)Nc3ccc(OC)cc3)cc2C(=O)N([C@H](C)CO)C[C@@H]1C — within error, 1.07 ± 0.022
- C[C@H]1CN([C@@H](C)CO)C(=O)c2ccccc2-c2ccccc2CO[C@@H]1CN(C)S(=O)(=O)c1cccs1 — within error, 1.07 ± 0.056
- CN1c2ccc(-c3cccc(C#N)c3)cc2[C@H]2[C@H](CCN2C(=O)CN2CCOCC2)[C@@H]1CO — higher, 1.12 ± 0.027
- Cc1noc(C)c1NC(=O)Nc1ccc2c(c1)C(=O)N([C@H](C)CO)C[C@@H](C)[C@@H](CN(C)S(=O)(=O)c1ccc(F)cc1)O2 — within error, 1.03 ± 0.13
- O=C(C[C@H]1CC[C@H]2NC[C@H](O)COC[C@@H]2O1)NCc1ccc2c(c1)OCO2 — within error, 0.982 ± 0.03
- CO[C@@H]1CN(C)C(=O)c2ccc(NC(=O)c3cccnc3)cc2OC[C@@H](C)N(CC2CCCCC2)C[C@H]1C — higher, 1.08 ± 0.019
- CCC(=O)N1C[C@]2(CCN(Cc3ccccc3Cl)CC2)c2c([nH]c3cc(OC)ccc23)[C@@H]1CO — within error, 0.987 ± 0.03
- C[C@H]1CN([C@@H](C)CO)C(=O)c2ccccc2-c2ccccc2CO[C@H]1CN(C)Cc1cccc(C(=O)O)c1 — within error, 0.958 ± 0.034
- C/C=C/c1ccc([C@H]2[C@H]3CNC[C@@H]2N3C(=O)NCCC)cc1 — within error, 1.02 ± 0.025
- C/C=C/c1ccc2n(c1=O)C[C@@H]1[C@@H](CO)[C@H](C(=O)N(C)C)N(C(=O)CC)[C@H]21.C/C=C\c1ccc2n(c1=O)C[C@@H]1[C@@H](CO)[C@H](C(=O)N(C)C)N(C(=O)CC)[C@H]21 — within error, 1.05 ± 0.064
- O=C(C[C@@H]1C[C@@H]2c3cc(NC(=O)C4CCOCC4)ccc3O[C@@H]2[C@H](CO)O1)NCc1cccnc1 — higher, 1.09 ± 0.024
- O=C(c1cccc(F)c1)N1CC(=O)N2[C@H](CO)[C@@H](c3ccc(/C=C/c4ccccc4)cc3)[C@H]2C1 — within error, 1.01 ± 0.017
- O=C(C[C@H]1CC[C@@H](NC(=O)Nc2ccc(C(F)(F)F)cc2)[C@H](CO)O1)NCc1cccc(F)c1 — within error, 0.953 ± 0.14
- O=C(C[C@H]1CC[C@@H](NC(=O)c2cccnc2)[C@@H](CO)O1)NCc1ccc(Cl)c(Cl)c1 — within error, 0.969 ± 0.05
- CNC[C@H]1OCCCC[C@H](C)Oc2ccc(NS(=O)(=O)c3ccc(F)cc3)cc2C(=O)N([C@@H](C)CO)C[C@H]1C — within error, 1.04 ± 0.03
- CO[C@@H]1CN(C)C(=O)c2ccc(NC(=O)Nc3ccccc3Cl)cc2OC[C@@H](C)NC[C@@H]1C — within error, 1.08 ± 0.073
- CN(C)C(=O)C[C@@H]1C[C@@H]2c3cc(NC(=O)Nc4ccc(F)cc4)ccc3O[C@@H]2[C@@H](CO)O1 — within error, 1.05 ± 0.031
- CO[C@H](CN(C)Cc1ccc2c(c1)OCO2)[C@H](C)CN(C(=O)Nc1ccc(F)cc1)[C@H](C)CO — within error, 1.0076 ± 0.00049
- CN1C(=O)c2cc(NS(=O)(=O)c3cccc(F)c3)ccc2OC[C@@H]2O[C@@H](CC(=O)NCCN3CCCCC3)CC[C@H]21 — within error, 0.973 ± 0.011
- O=S(=O)(c1cccs1)N1CCCCN2[C@H](CO)[C@@H](c3ccc(/C=C/c4ccccc4)cc3)[C@@H]2C1 — within error, 1.06 ± 0.029
- C[C@@H]1CCCCO[C@@H](CN(C)C(=O)CCC(F)(F)F)[C@@H](C)CN([C@H](C)CO)C(=O)c2cc(NC(=O)C3CCCCC3)ccc2O1 — within error, 1.05 ± 0.032
- Cc1cc(C(=O)Nc2ccc3c(c2)C(=O)N(C)[C@H]2CC[C@@H](CC(=O)O)O[C@@H]2CO3)no1 — within error, 1.02 ± 0.021
- CO[C@H]1CC[C@@H]2CCOc3c(C#N)cccc3C(=O)N(C)C[C@H](OC)[C@@H](C)C(=O)N(C)C[C@@H]1O2 — within error, 1.01 ± 0.033
- O=C(C1CCOCC1)N1CC[C@H]2[C@H](CO)Nc3ccc(-c4cccc(F)c4)cc3[C@H]21 — within error, 1.04 ± 0.056
- C[C@@H]1CN([C@@H](C)CO)C(=O)c2cc(NS(=O)(=O)c3ccc(Cl)cc3)ccc2O[C@@H](C)CCCCO[C@@H]1CN(C)C(=O)CCCN(C)C — within error, 1.13 ± 0.13
- COc1ccc2c3c([nH]c2c1)[C@@H](CO)N(Cc1ccccn1)C[C@]31CN(Cc2cccc(F)c2)C1 — within error, 0.935 ± 0.16
- O=C(C[C@@H]1CC[C@@H]2[C@H](COC[C@H](O)CN2C(=O)Nc2ccc(Cl)cc2)O1)NCC1CCCCC1 — within error, 1.11 ± 0.12
- O=C(c1cnccn1)N1CC(=O)N2[C@H](CO)[C@H](c3ccc(C#CC4CC4)cc3)[C@H]2C1 — within error, 1.015 ± 0.0038
- CO[C@@H]1CN(C)C(=O)c2cc(NC(=O)c3nc4ccccc4s3)ccc2OC[C@@H](C)NC[C@@H]1C — higher, 1.145 ± 0.0081
- C[C@H](O)C#Cc1ccc([C@H]2[C@@H](CO)N3CCCCN(CC4CC4)C[C@H]23)cc1 — within error, 1.06 ± 0.02
- C[C@@H]1CCCCO[C@H](CN(C)Cc2ccc(Cl)c(Cl)c2)[C@@H](C)CN([C@H](C)CO)C(=O)c2cc(NS(=O)(=O)c3cccs3)ccc2O1 — within error, 0.985 ± 0.089
- Cc1noc(C)c1NC(=O)N(C)C[C@H]1OCCCC[C@@H](C)Oc2ccc(NC(=O)Nc3ccc(C(F)(F)F)cc3)cc2C(=O)N([C@@H](C)CO)C[C@H]1C — within error, 1.01 ± 0.025
- CCCNC(=O)N1C[C@@H](O)COC[C@@H]2O[C@@H](CC(=O)OC)CC[C@H]21 — within error, 1.03 ± 0.085
- C[C@H](CO)N1C[C@H](C)[C@@H](CN(C)S(=O)(=O)c2ccccc2)Oc2ccc(NC(=O)C3CC3)cc2C1=O — within error, 0.904 ± 0.08
- O=S(=O)(c1ccc(F)cc1)N1CCCCN2[C@H](C1)[C@@H](c1ccc(-c3cncnc3)cc1)[C@@H]2CO — within error, 0.995 ± 0.025
- COc1ccccc1NC(=O)N1C[C@@H]2N[C@H](C1)[C@H]2c1ccc(-c2cccc(C#N)c2)cc1 — within error, 1.03 ± 0.061
- C[C@H]1CN([C@@H](C)CO)C(=O)c2cc(N(C)C)ccc2O[C@H]1CN(C)CC1CCCCC1 — within error, 1.04 ± 0.081
- COc1ccc(NC(=O)N2CCCCN3[C@H](C2)[C@H](c2ccc(-c4ccccc4F)cc2)[C@@H]3CO)cc1 — within error, 0.969 ± 0.046
- O=C(c1ccccc1F)N1CC2(C1)[C@H](c1ccccc1)[C@H](CO)N2CC1CCOCC1 — within error, 1.028 ± 0.0081
- Cc1ccccc1-c1ccccc1[C@H]1[C@@H](C#N)N(C(=O)c2ccc(F)cc2)[C@@H]1CO — higher, 1.17 ± 0.067
- CN1C(=O)c2cc(NC(=O)c3cnccn3)ccc2OC[C@@H]2O[C@H](CC(=O)NCC3CCCCC3)CC[C@@H]21 — within error, 1.03 ± 0.037
- CCCC(=O)Nc1ccc2c(c1)C(=O)N(C)[C@@H]1CC[C@@H](CC(=O)N3CCCCC3)O[C@H]1CO2 — higher, 1.15 ± 0.075
- CC(C)C#Cc1ccc([C@@H]2[C@H](C#N)N(C(=O)c3cccc(F)c3)[C@H]2CO)cc1 — within error, 1.032 ± 0.0094
- COCC(=O)N1C[C@@]2(C1)CN(Cc1ccccc1F)[C@@H](CO)c1[nH]c3cc(OC)ccc3c21 — within error, 0.984 ± 0.09
- C[C@@H](NC(=O)C[C@@H]1C[C@H]2c3cc(NS(=O)(=O)c4ccc(F)cc4)ccc3O[C@H]2[C@@H](CO)O1)c1ccccc1 — within error, 1.03 ± 0.085
- COc1cccc(C(=O)Nc2ccc3c(c2)C(=O)N(C)[C@@H]2CC[C@H](CC(=O)N[C@H](C)c4ccccc4)O[C@@H]2CO3)c1 — within error, 1.12 ± 0.081
- CCCC(=O)N1CC[C@@]2(CC1)CN([C@@H](CO)c1[nH]c3cc(OC)ccc3c21)C(=O)C1CCC1 — within error, 1.04 ± 0.037
- O=C(c1ccncc1)N1C[C@H]2[C@@H](c3ccccc31)[C@H](CO)N2C(=O)CN1CCOCC1 — within error, 1.06 ± 0.09
- C[C@@H]1CN([C@@H](C)CO)C(=O)c2cc(NS(C)(=O)=O)ccc2O[C@H]1CN(C)C — within error, 1.03 ± 0.068
- CCC(=O)N1[C@@H](CO)[C@@H](c2ccc(-c3cccc(OC)c3)cc2)C12CN(C(C)=O)C2 — the same, 1 ± 0.049
- CC(=O)N1CC2(C1)[C@H](c1ccc(-c3ccc(F)cc3)cc1)[C@@H](CO)N2CC1CC1 — higher, 1.11 ± 0.033
- Fc1ccc(-c2ccc([C@H]3[C@@H]4CN(Cc5ccccc5)C[C@H]3N4)cc2)cc1 — within error, 0.952 ± 0.025
- C[C@@H]1CN([C@H](C)CO)S(=O)(=O)c2ccc(-c3ccncc3)cc2O[C@@H]1CN(C)S(C)(=O)=O — within error, 1.06 ± 0.062
- CO[C@H]1CC[C@H]2CCN(C)C(=O)CC3(CCCCC3)CN(C)C(=O)c3cc(C#N)ccc3OC[C@H]1O2 — within error, 1.03 ± 0.028
- COc1ccc(NC(=O)N2CCCCN3[C@H](CO)[C@@H](c4ccc(-c5ccccc5F)cc4)[C@@H]3C2)cc1 — within error, 1.04 ± 0.016
- C/C=C/c1cccc(-c2nc(C(=O)Nc3nccs3)cc3c2[C@@H](CCO)N(C(=O)NC(C)C)C3)c1 — lower, 0.867 ± 0.035
- O=C(c1ccccn1)N1CC2(C1)[C@@H](c1ccccc1)[C@@H](CO)N2C(=O)C1CCCCC1 — within error, 1.041 ± 0.0089
- O=C(CN1CCOCC1)NC[C@@H]1N[C@@H](CO)[C@H]1c1ccc(-c2ccccc2)cc1 — within error, 1.02 ± 0.069
- CN(C)C(=O)c1ccc(-c2ccc([C@H]3[C@@H]4CN(C(=O)c5ccccn5)C[C@H]3N4)cc2)cc1 — within error, 1.02 ± 0.17
- CC(C)CC#Cc1ccc([C@H]2[C@H](CO)N3CCCCN(C(=O)Nc4ccccc4)C[C@@H]23)cc1 — within error, 0.935 ± 0.034
- CNC(=O)C[C@H]1CC[C@H]2[C@@H](COC[C@@H](O)CN2Cc2ccccc2F)O1 — within error, 1.01 ± 0.041
- C/C=C/c1ccc2n(c1=O)C[C@@H]1[C@@H](CO)[C@H](C(=O)N3CCOCC3)N(Cc3ccccc3)[C@H]21.C/C=C\c1ccc2n(c1=O)C[C@@H]1[C@@H](CO)[C@H](C(=O)N3CCOCC3)N(Cc3ccccc3)[C@H]21 — within error, 1.03 ± 0.065
- CO[C@@H]1CN(C)C(=O)c2cc(NC(=O)Nc3cccc(Cl)c3)ccc2OC[C@H](C)N(C(=O)Nc2c(C)noc2C)C[C@H]1C — within error, 1.07 ± 0.019
- COc1ccc2c3c([nH]c2c1)[C@@H](CO)N(Cc1ccncc1)C[C@]31CN(Cc2ccc(cc2)-c2ccccn2)C1 — within error, 0.908 ± 0.055
- Cc1noc(C)c1S(=O)(=O)Nc1ccc2c(c1)C(=O)N([C@@H](C)CO)C[C@@H](C)[C@@H](CN(C)C(=O)Nc1cccc3ccccc13)OCCCC[C@H](C)O2 — lower, 0.828 ± 0.11
- CCc1nc(N2[C@H](C#N)[C@@H](c3ccccc3-c3ccc(F)cc3)[C@H]2CO)sc1C — within error, 1.06 ± 0.095
- COCC#Cc1ccc([C@@H]2[C@@H](CO)N3C(=O)CN(C(=O)C4CCCCC4)C[C@@H]23)cc1 — higher, 1.09 ± 0.025
